Assay results published in PubChem BioAssay AID651820 (National Center for Advancing Translational Sciences (NCATS), 2012).
The campaign covered roughly 340,000 compounds. About 12,000 (3.5%) were called active. This list was built around the results that the source calls inconclusive (neither active nor inactive); the mix of calls is not that of the screen. Calls come from the whole dose curve; as a rule, active = well fitted inhibition curve with a large enough effect; inconclusive = small, poorly fitted or top-dose-only effect, or another doubt; inactive = no such curve, though single readings can be large or run the other way. Potencies of inconclusive entries are left out as doubtful fits.

Test: qHTS Assay for Inhibitors of Hepatitis C Virus (HCV)
Conditions: Huh7.5.1 HCVcc-Cre (HCVcc is cell-culture hepatitis C virus) infection, luciferase reporter, 44 h; series mostly up to 41.8 µM
In short: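 1,000 cells/well; 4 h culture; + compound; + HCVcc-Cre (~0.5 moi); 44 h; luciferase substrate, RT 15 min; read 15 sec.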
Potency is the fitted concentration of half-maximal effect; tags give direction and shape of the fitted curve.

Row | Compound | Potency
1 | OCC1CCCN(C(=S)Nc2ccc(Nc3ccccc3)cc2)C1 (stereo not drawn) | inactive
2 | Cc1cc(-c2ccc(C(C)C)c(S(=O)(=O)NCCN3CCC(C)CC3)c2)on1 | inactive
3 | COc1ccccc1CC(=O)Nc1ccc(-c2noc(COc3cccc(C)c3C)n2)cc1 | inconclusive [inhibitor, partial curve]
4 | CCOC(=O)N1CCN(c2ccc(S(=O)(=O)N3CCC(C)CC3)cc2[N+](=O)[O-])CC1 | inconclusive [inhibitor, single point]
5 | CC(CCCN1CCCC1)Nc1ccnc2cc(Cl)ccc12 (stereo not drawn) | inconclusive [inhibitor, partial curve]
6 | CCC(CC)N1CCN(C(=O)c2cccc(Cl)c2)CC1 | inactive
7 | CCOC(=O)c1ccc(Oc2nc(NC)nc(OC)n2)cc1 | inactive
8 | COc1ccc(NS(=O)(=O)c2cccc(NC(=O)C3=NN(c4ccccc4)C(=O)CC3)c2)cc1 | inactive
9 | CC(C)(c1ccccc1)c1ccc(OCCCN2CCNCC2)cc1 | active: 8.91 µM
10 | COc1ccc(CN(C)C(=O)CCC(=O)N2CCN(S(=O)(=O)c3ccc(Cl)cc3)CC2)c(OC)c1 | inconclusive [inhibitor, single point]
11 | O=S(=O)(c1ccccc1)c1cnc(-c2ccccc2)nc1N1CCCCC1 | inconclusive [inhibitor, partial curve]
12 | Cc1nn(-c2ccccc2)c2c1C1(C(=O)N(C)c3ccccc31)N(c1ccccc1)C(=O)N2 (stereo not drawn) | inactive
13 | N/C(=N\OC(=O)c1cc(-c2ccccc2)nc2ccccc12)c1cccnc1 | inconclusive [inhibitor, single point]
14 | O=C(NC1CCCN(C2Cc3ccccc3C2)C1)c1ccc(F)cc1Cl (stereo not drawn) | inactive
15 | CCc1ccc(-c2ccc3nnc(SCC(=O)NCC4CCCO4)n3n2)cc1 (stereo not drawn) | inactive
16 | CNC(=O)N(C1=NCC(C)(C)S1)c1ccc(F)c(Cl)c1 | inactive
17 | CCCCCCC(=O)NNC(=O)CC(=O)Nc1ccccc1C(=O)O | inconclusive [inhibitor, single point]
18 | CCC(C(=O)N1CCC(N2CCCCC2)CC1)n1nc(C)c2sc3ccccc3c2c1=O (stereo not drawn) | inactive
19 | COC(=O)Cn1c(CN2CCN(c3ccc(F)cc3)CC2)nc2c1c(=O)n(C)c(=O)n2C | inconclusive [inhibitor, partial curve]
20 | O=C(O)c1ccc(-c2nc(-c3ccccc3)c(-c3cccs3)[nH]2)cc1 | inactive
21 | CC1CCCN(c2ccc(C(=O)Nc3ccc4c(c3)OCO4)cc2[N+](=O)[O-])C1 (stereo not drawn) | inconclusive [inhibitor, partial curve]
22 | Clc1ccc(-c2nnc(NCCN3CCCC3)c3ccccc23)cc1 | inconclusive [inhibitor, single point]
23 | CCN(CC)S(=O)(=O)c1ccc(N2CCCC2)c(NS(=O)(=O)c2ccc([N+](=O)[O-])cc2)c1 | inactive

Row | Compound | Potency
24 | Cc1ccc(NC(=O)CN2C(=O)NC(C)(C)C2=O)cc1S(=O)(=O)N1CCCCCC1 | inconclusive [inhibitor, single point]
25 | COc1ccc(-c2nnn(CC(=O)N(CC(=O)NC3CCCC3)Cc3cccs3)n2)cc1OC | inconclusive [inhibitor, single point]
26 | Cc1ccccc1NC(=O)Cc1nc(CN(C)CC(=O)Nc2cccc(F)c2)cs1 | inconclusive [inhibitor, single point]
27 | Cc1c(C(=O)OCc2nc3scc(-c4ccccc4)c3c(=O)[nH]2)cccc1[N+](=O)[O-] | inconclusive [inhibitor, single point]
28 | Cc1cccc(-c2nsc(SCC(=O)N3CCCC3)n2)c1 | inconclusive [inhibitor, full curve, poor fit]
29 | COc1ccc(Cl)cc1NC(=O)CN(C)C(=O)c1ccc(C)s1 | inconclusive [inhibitor, partial curve]
30 | Cc1ccc(CN2CCN(Cc3ccncc3)CC2CCO)o1 (stereo not drawn) | inactive
31 | CNc1ccc2oc(C[C@H]3O[C@@]4(CC[C@H]3C)O[C@H]([C@H](C)C(=O)c3ccc[nH]3)[C@H](C)C[C@H]4C)nc2c1C(=O)O | active: 2.24 µM
32 | COc1ccc(S(=O)(=O)Nc2ccc3c(c2)CC(=O)N([C@@H](C)CO)C[C@@H](C)[C@@H](CN(C)Cc2ccccc2)O3)cc1 | inconclusive [inhibitor, single point]
33 | Clc1nc(NC2CCCC2)nc(N2CCOCC2)n1 | active: 14.1 µM
34 | COc1ccc(NS(=O)(=O)c2ccc(N3CCOCC3)c(NC(=O)c3ccc(F)cc3)c2)cc1 | inconclusive [inhibitor, single point]
35 | O=C(CC1S/C(=N/N=C/c2cccs2)NC1=O)Nc1ccccc1F (stereo not drawn) | inactive
36 | Cc1cccn2cc(-c3cccc(S(=O)(=O)N4CCOCC4)c3)nc12 | inconclusive [inhibitor, full curve, poor fit]
37 | CCOc1cc(S(=O)(=O)N(CC)CC)ccc1Br | inconclusive [inhibitor, full curve, poor fit]
38 | O=C(C1CC1)N1CCN(c2ccc([N+](=O)[O-])cc2-n2cccc2)CC1 | inconclusive [inhibitor, single point]
39 | NS(=O)(=O)c1cccc(NC(=O)c2cc(-c3cccs3)nc3ccccc23)c1 | inactive
40 | Cc1cc(C)cc(OCCCCn2cncn2)c1 | inconclusive [inhibitor, single point]
41 | Cc1ccccc1Cc1c(C)nc2nc(SCC(=O)NCc3ccco3)nn2c1C | inconclusive [inhibitor, partial curve]
42 | COc1ccc(S(=O)(=O)Nc2cc(C(=O)NCCCN3CCOCC3)ccc2N2CCOCC2)cc1 | inactive
43 | CC(CC(=O)N1CCN(c2cccc(Cl)c2)CC1)S(=O)(=O)c1ccc2c(c1)NC(=O)CO2 (stereo not drawn) | active: 6.31 µM
44 | O=C(CN1C(=O)/C(=C/c2ccccc2F)Sc2ccccc21)N1CCN(c2ccccn2)CC1 | inconclusive [inhibitor, single point]
45 | CCN1CCN(S(=O)(=O)c2ccc(Cl)c(C(=O)Nc3ccccc3N3CCCCC3)c2)CC1 | active: 12.6 µM
46 | COc1ccc(-c2nn(-c3ccccc3)cc2CNC[C@H]2O[C@@H](n3cnc(C(N)=O)n3)[C@H](O)[C@@H]2O)cc1 | inactive

Row | Compound | Potency
47 | CC(C)COc1ccc(CSCCNC(=S)Nc2ccccc2)cc1 | inconclusive [inhibitor, single point]
48 | CCCN1C(=O)COc2ccc(-c3n[nH]c(=O)c4ccccc34)cc21 | inactive
49 | Cc1cc(OCC(=O)C(C)(C)C)c2c(-c3ccccc3)cc(=O)oc2c1 | inconclusive [inhibitor, partial curve]
50 | Cc1sc(NC(=O)/C=C/C(=O)O)c(C(N)=O)c1-c1ccc(C(C)(C)C)cc1 | inactive
51 | NC(=S)N/N=C\c1ccccc1OCc1ccccc1 | inconclusive [inhibitor, partial curve]
52 | NC(=O)CSc1nnc(C2CC2)n1-c1ccccc1 | inconclusive [inhibitor, single point]
53 | NC(=S)N/N=C/c1ccc(-n2nncc2-c2ccc(Cl)cc2)cc1 | active: 12.6 µM
54 | CC(C)CNC(=O)c1cccc(NC(=O)c2ccc(Cl)c([N+](=O)[O-])c2)c1 | inconclusive [inhibitor, single point]
55 | COCCN(C(=O)COC(=O)/C=C/c1nc2ccccc2s1)c1c(N)n(Cc2ccccc2)c(=O)[nH]c1=O | inconclusive [inhibitor, single point]
56 | CC(C)CN1C(=S)SC(C)(C)C1n1oc(=O)n(-c2ccc(Cl)cc2)c1=O (stereo not drawn) | inconclusive [inhibitor, partial curve]
57 | CCCCNC(=S)N(CCN(CC)CC)Cc1cc2cc3c(cc2[nH]c1=O)OCCO3 | inconclusive [inhibitor, single point]
58 | COc1cccc(CN2CCN(C(=O)COc3ccc4ccccc4c3)CC2)c1 | inconclusive [inhibitor, partial curve]
59 | COc1ccc(C(=O)n2nc(C)c(Br)c2C)cc1 | inactive
60 | CCOC(=O)c1ccc(NC(=O)NC(C)C2CCCO2)cc1 (stereo not drawn) | inconclusive [inhibitor, single point]
61 | OC(COc1ccccc1Cl)CN1CCN(CC(O)COc2ccccc2Cl)CC1 (stereo not drawn) | inconclusive [inhibitor, single point]
62 | COc1ccc(-c2csc3ncnc(N4CCN(c5cccc(Cl)c5)CC4)c23)cc1 | inconclusive [inhibitor, single point]
63 | CCOC(=O)N1CCN(C(=O)Cc2c(C(=O)O)n(C)c3ccccc23)CC1 | active: 3.55 µM
64 | CCOC(=O)c1ccc2c(c1)nc(-c1ccccn1)n2CC | inconclusive [inhibitor, single point]
65 | COc1ccc(OC)c(C(=O)/C=C/c2ccccc2C(F)(F)F)c1 | active: 10 µM
66 | Cc1ccc(S(=O)(=O)Nc2cc(Cl)c(O)c3ncccc23)cc1 | inconclusive [inhibitor, full curve]
67 | CCC(NC(=O)c1ccccc1NC(=O)c1ccco1)C(=O)NNC(=O)c1ccncc1 (stereo not drawn) | inconclusive [inhibitor, partial curve]
68 | CCOC(=O)c1c(C)n(-c2ccc(OC)cc2)c2ccc(O)c(CN(C)C)c12 | inconclusive [inhibitor, single point]
